Patent US20260263470A1, “A METHOD FOR THE TREATMENT OF CHRONIC HAND ECZEMA IN PATIENTS WITH MODERATE TO SEVERE CHRONIC HAND ECZEMA” (priority 2023, published 2026)

System: adult subjects with moderate to severe chronic hand eczema
Experiment: DELTA 2 phase 3 trial: twice-daily delgocitinib cream 20 mg/g vs cream vehicle for 16 weeks

SMILES: C[C@H]1CN(C(=O)CC#N)[C@]12CCN(c1ncnc3[nH]ccc13)C2 [delgocitinib, Delgocitinib]
- patients who reported serious AEs: 1.6%
- rate of AEs assessed as probably or possibly related to study drug: 31.29 per 100-patient years of observation [PYO]
- rate of AEs leading to discontinuation of study drug: 1.04 per 100 PYO
- patients achieving HECSI-75 (Week 16): 49.5%
- patients achieving HECSI-90 (Week 16): 31.0%
- patients achieving ≥4-point improvement in DLQI (Week 16): 72.2%
- patients achieving IGA-CHE TS (IGA-CHE score of 0 [clear] or 1 [almost clear] with at least a 2-step improvement) (Week 16, cream 20 mg/g twice daily): 29.1%
